Test results: the supplement of paper PMC7826260
The other results are listed elsewhere or left out. One pool of 16,384 single-stranded DNAs met each Rep nickase domain in vitro for 1 h at 37 °C with 3 µM enzyme; only the middle of the 90-letter strands is printed. Numbers give uncut DNA relative to the enzyme-free pool, as log2; strong cutting gives strongly negative numbers. There is no active / inactive call. Shares of all reads are compared; where an enzyme cuts many sequences, the uncut ones exceed 0.

test system: T1, Rep nickase domain of tomato yellow leaf curl virus; assay: uncleaved DNA left, log2 of reads against the no-enzyme library (log2 ratio); higher = less cleavage (more negative = more Rep cleavage of the k-mer); sequences stand for … in CTCGTCCG…ACCGGAGA
T1 sequence (protein, residues 1-136, tag omitted): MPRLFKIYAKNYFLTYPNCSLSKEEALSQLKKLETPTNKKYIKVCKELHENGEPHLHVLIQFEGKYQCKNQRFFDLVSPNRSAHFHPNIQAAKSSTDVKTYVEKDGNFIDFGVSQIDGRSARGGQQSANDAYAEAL
Procedure: (§1)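 A pool of 90-nt single-stranded DNAs with seven random bases just before the constant AC of the nick site (name = the seven bases) was cut by 3 µM recombinant His6-SUMO-tagged Rep nickase domain (300 nM DNA, 50 mM HEPES pH 8.0, 50 mM NaCl, 1 mM MnCl2, 1 h, 37 °C, three replicates). Uncut DNA was amplified and sequenced.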

| Sequence | uncleaved DNA left (log2) |
| --- | --- |
| ACAGCTG | 0.0847 |
| AATCGTC | -0.0683 |
| TCGCAGA | -0.0943 |
| GCATGAA | 0.172 |
| CGCCCGC | -0.00316 |
| GAAACGG | -0.0168 |
| TGCCGAG | -0.00963 |
| TGCATTC | 0.152 |
| CTACAAC | -0.215 |
| ATTTGCG | -0.248 |
| GGAACTA | 0.0593 |
| CAGGCCG | 0.0552 |
| CGGTGAA | -0.134 |
| TCGGCGT | -0.261 |
| TCCACTC | -0.137 |
| GTACAGC | 0.119 |
| AGGTCCT | 0.0891 |
| CGCTCTC | -0.19 |
| CCGCTCT | -0.152 |
| CCGGATA | -0.134 |

| Sequence | uncleaved DNA left (log2) |
| --- | --- |
| ACACGCC | -0.179 |
| TCCTACC | -0.0277 |
| CGACCGT | 0.04 |
| GCGTTCT | -0.0107 |
| AAACTGT | -0.0515 |
| TCGTCTC | -0.0967 |
| CAAACTA | 0.0333 |
| ACTAGCC | 0.0138 |
| AGAGGTG | -0.0805 |
| CACTGAC | -0.0154 |
| ACGCGCG | -0.00639 |
| GTGGAGT | 0.0856 |
| TTTAGGG | 0.047 |
| AGCCCGT | -0.0131 |
| TAGACTA | 0.0733 |
| GGGGGTG | -0.0835 |
| TGTCGGA | 0.00317 |
| GAAGCGG | -0.0316 |
| TGTAACG | -0.0603 |
| ACATTTC | 0.033 |

test system: T2, Rep nickase domain of wheat dwarf virus; assay: as above
T2 sequence (protein, residues 1-137, tag omitted): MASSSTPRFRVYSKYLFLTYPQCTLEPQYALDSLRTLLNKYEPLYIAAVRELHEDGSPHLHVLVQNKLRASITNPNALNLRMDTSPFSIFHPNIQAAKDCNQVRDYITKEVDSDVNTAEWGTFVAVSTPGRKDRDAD
Procedure: as §1

| Sequence | uncleaved DNA left (log2) |
| --- | --- |
| ACAGCTG | 0.17 |
| AATCGTC | -0.000193 |
| TCGCAGA | -0.0465 |
| GCATGAA | 0.139 |
| CGCCCGC | -0.0253 |
| GAAACGG | 0.0454 |
| TGCCGAG | -0.118 |
| TGCATTC | 0.11 |
| CTACAAC | -0.119 |
| ATTTGCG | -0.107 |
| GGAACTA | 0.164 |
| CAGGCCG | -0.236 |
| CGGTGAA | -0.0791 |
| TCGGCGT | -0.227 |
| TCCACTC | -0.0157 |
| GTACAGC | 0.161 |
| AGGTCCT | 0.241 |
| CGCTCTC | -0.0493 |
| CCGCTCT | 0.0262 |
| CCGGATA | -0.108 |

| Sequence | uncleaved DNA left (log2) |
| --- | --- |
| ACACGCC | -0.0662 |
| TCCTACC | -0.566 |
| CGACCGT | 0.0327 |
| GCGTTCT | -0.0612 |
| AAACTGT | 0.027 |
| TCGTCTC | -0.0878 |
| CAAACTA | -0.0478 |
| ACTAGCC | 0.0621 |
| AGAGGTG | 0.0325 |
| CACTGAC | 0.083 |
| ACGCGCG | -0.0378 |
| GTGGAGT | 0.173 |
| TTTAGGG | -0.00662 |
| AGCCCGT | 0.068 |
| TAGACTA | 0.15 |
| GGGGGTG | -0.066 |
| TGTCGGA | 0.0639 |
| GAAGCGG | -0.0232 |
| TGTAACG | -0.0663 |
| ACATTTC | 0.0545 |
